Among the data in a collection of fitness landscapes (doi:10.1126/science.1257360) are enrichment ratio values, retold here.

First the molecules themselves.
B1: PhoQ; a variant is named by its letters at X, in order, P23837 (parent)
chain: MKKLLRLFFPLSLRVRFLLATAAVVLVLSLAYGMVALIGYSVSFDKTTFRLLRGESNLFYTLAKWENNKLHVELPENIDKQSPTMTLIYDENGQLLWAQRDVPWLMKMIQPDWLKSNGFHEIEADVNDTSLLLSGDHSIQQQLQEVREDDDDAEMTHSVAVNVYPATSRMPKLTIVVVDTIPVELKSSYMVWSWFIYVLSANLLLVIPLLWVAAWWSLRPIEALAKEVRELEEHNRELLNPATTRELTSLVRNLNRLLKSERERYDKYRTTLTDLTHSLKTPLXXLQXXLRSLRSEKMSVSDAEPVMLEQISRISQQIGYYLHRASMRGGTLLSRELHPVAPLLDNLTSALNKVYQRKGVNISLDISPEISFVGEQNDFVEVMGNVLDNACKYCLEFVEISARQTDEHLYIVVEDDGPGIPLSKREVIFDRGQRVDTLRPGQGVGLAVAREITEQYEGKIVAGESMLGGARMEVIFGRQHSAPKDE

The other results are listed elsewhere or left out. Where only a bound is given, the exact number is not on record here.

Variants of B1 are the subject of this assay. Briefly: enrichment ratio after two sorts for PhoP signalling (ratio (wild type AVST 3.29)); higher = more functional. As to conditions: with PhoP (E. coli).
With RFLY, the enrichment ratio is not above 0.25. For QIDT the value was not above 0.25. For MMHL the value was 1.34. For the variant MADA, the enrichment ratio was not above 0.25. The same measure for RKKM: not above 0.25. Turning to VRED, the enrichment ratio is not above 0.25.

Regarding FRFN, the enrichment ratio was not above 0.25. With RWVP, the enrichment ratio is not above 0.25. As for AHDD, the enrichment ratio is not above 0.25. Turning to QAKQ, the enrichment ratio is not above 0.25.

As for GYCK, the enrichment ratio was not above 0.25. The same measure for NLGQ: not above 0.25; for RFHA: not above 0.25; for RGGC: not above 0.25. PDAG: the enrichment ratio is not above 0.25. Regarding LYSV, the enrichment ratio was not above 0.25. The same measure for RARI: not above 0.25; for MDHY: 0.429.

Consider FLPF, for which the enrichment ratio is not above 0.25. As for KTNI, the enrichment ratio was not above 0.25.

Take PKYS: the enrichment ratio is not above 0.25. With AGML, the enrichment ratio was determined as 16.1. The same measure for WVKR: not above 0.25; for WYEG: not above 0.25. EECT: the enrichment ratio was not above 0.25. The same measure for WPSK: not above 0.25; for SYRR: not above 0.25; for SDAG: not above 0.25.

QNFA: the enrichment ratio is not above 0.25. QELK: the enrichment ratio is not above 0.25.

On to LGSL, for which the enrichment ratio is not above 0.25. The same measure for TVPS: not above 0.25; for RSRC: not above 0.25; for MQCF: not above 0.25. Turning to WVHM, the enrichment ratio is not above 0.25. On to MLNP, for which the enrichment ratio was not above 0.25. For HSPC the value was not above 0.25; for DSLH, not above 0.25; for THQV, 5.35. The same measure for MAVL: 2.43. For EDLS the value was not above 0.25; for MLHC, not above 0.25.

DYRA: the enrichment ratio was not above 0.25. As to ATKQ, the enrichment ratio was not above 0.25.

For WQCQ, the enrichment ratio was not above 0.25. The same measure for AVIM: 2.23; for WYVC: not above 0.25. As to VKSL, the enrichment ratio was not above 0.25.

Regarding PESQ, the enrichment ratio was not above 0.25. For DKPL the value was not above 0.25. The same measure for IVNW: not above 0.25. The same measure for HHRQ: not above 0.25. For the variant HTFR, the enrichment ratio was not above 0.25. On to LRVI, for which the enrichment ratio was not above 0.25. For MFCD the value was not above 0.25; for WCVP, not above 0.25.

As for SCLS, the enrichment ratio was 9.62. Consider TVDQ, for which the enrichment ratio is not above 0.25. On to DPNP, for which the enrichment ratio was not above 0.25.

With NEEL, the enrichment ratio is not above 0.25. For LPCS the value was not above 0.25. The same measure for ELLQ: not above 0.25; for MLYE: not above 0.25. Regarding PFIM, the enrichment ratio worked out at 0.672. VYTP: the enrichment ratio was not above 0.25. For QLGH the value was not above 0.25; for EMVY, not above 0.25; for RVVY, not above 0.25. For the variant FFRT, the enrichment ratio is not above 0.25.

Turning to DDDK, the enrichment ratio was not above 0.25. Consider DFNL, for which the enrichment ratio was not above 0.25. For WVPL the value was not above 0.25; for ICFD, not above 0.25. For KIPY the value was not above 0.25; for LKEA, not above 0.25; for ANVY, not above 0.25. The same measure for YPMC: not above 0.25; for INGP: not above 0.25; for MLED: not above 0.25.

Turning to KTVC, the enrichment ratio was not above 0.25.

In the case of FNLL, the enrichment ratio was found to be 6.59.

For FCNH, the enrichment ratio was not above 0.25.

In the case of ATPG, the enrichment ratio was not above 0.25. For WEMM, the enrichment ratio was not above 0.25. For YKNV the value was not above 0.25; for TQHH, 3.33; for VRKY, not above 0.25. On to TNPN, for which the enrichment ratio is not above 0.25. For FEFQ the value was not above 0.25; for LKME, not above 0.25. Turning to SAKA, the enrichment ratio was not above 0.25. Take GFCG: the enrichment ratio was not above 0.25. The same measure for AMFL: not above 0.25. Regarding NRTH, the enrichment ratio was not above 0.25. On to REKT, for which the enrichment ratio was not above 0.25.

Regarding WNNL, the enrichment ratio was not above 0.25. Turning to NYES, the enrichment ratio is not above 0.25.

Turning to FYQD, the enrichment ratio was not above 0.25. For LHFH the value was not above 0.25; for RGYR, not above 0.25; for TISM, 27.4. As to VVAS, the enrichment ratio was not above 0.25.

For the variant DWRP, the enrichment ratio is not above 0.25. With WSEP, the enrichment ratio is not above 0.25. With DGDS, the enrichment ratio is not above 0.25. The same measure for QTCT: not above 0.25. Turning to TMCG, the enrichment ratio was 15.

For PNRI, the enrichment ratio is not above 0.25. On to EYKA, for which the enrichment ratio is not above 0.25.

HAIF: the enrichment ratio was not above 0.25. The same measure for DSHQ: not above 0.25; for NHCM: not above 0.25; for SNKP: not above 0.25.

Regarding NGLT, the enrichment ratio was not above 0.25.

On to NQYE, for which the enrichment ratio was not above 0.25. For VRAP the value was not above 0.25; for FGSF, not above 0.25. The same measure for NRYE: not above 0.25; for FVSG: not above 0.25. Turning to HYKP, the enrichment ratio is not above 0.25. The same measure for FKAF: not above 0.25.

Consider SNEC, for which the enrichment ratio was not above 0.25. Consider RRTP, for which the enrichment ratio is not above 0.25.

For INYL, the enrichment ratio was not above 0.25.

For the variant EDMM, the enrichment ratio was not above 0.25. For the variant EMTS, the enrichment ratio is not above 0.25. In the case of HGEF, the enrichment ratio was not above 0.25. For MGGV the value was 7.12; for RHVY, not above 0.25.

As for YGGR, the enrichment ratio is not above 0.25. MEEP: the enrichment ratio is not above 0.25. IYKH: the enrichment ratio was not above 0.25. The same measure for YMVS: not above 0.25.

Regarding RAVW, the enrichment ratio is not above 0.25.

In the case of GKHI, the enrichment ratio is not above 0.25. The same measure for QNIM: not above 0.25; for WYCD: not above 0.25; for YTKG: not above 0.25. In the case of TKML, the enrichment ratio was found to be 19.2. GSEC: the enrichment ratio was not above 0.25.

In the case of VSEY, the enrichment ratio was not above 0.25.

Regarding PDRW, the enrichment ratio was not above 0.25. For WWLQ the value was not above 0.25; for TDMN, 5.19; for EFGH, not above 0.25. For NKNS the value was not above 0.25. For the variant LGFQ, the enrichment ratio was determined as 9.07. For HRCR the value was not above 0.25. The same measure for GNGI: not above 0.25; for NNWR: not above 0.25. For the variant NVFR, the enrichment ratio was 0.485. The same measure for ANIH: not above 0.25; for LWWT: not above 0.25.
